Experimental data reported in the GPR68 mutational scans of Howard et al. (2025).
The least precise scores are not listed. Two further conditions of the source, in which the scores hardly spread, are not listed. Read del as a deletion of the residues named and ins as an insertion between two positions. For some of these results: How much ogerin was present is not stated here.

B1: GPR68, Q15743 (parent)
chain: MGNITADNSSMSCTIDHTIHQTLAPVVYVTVLVVGFPANCLSLYFGYLQIKARNELGVYLCNLTVADLFYICSLPFWLQYVLQHDNWSHGDLSCQVCGILLYENIYISVGFLCCISVDRYLAVAHPFRFHQFRTLKAAVGVSVVIWAKELLTSIYFLMHEEVIEDENQHRVCFEHYPIQAWQRAINYYRFLVGFLFPICLLLASYQGILRAVRRSHGTQKSRKDQIQRLVLSTVVIFLACFLPYHVLLLVRSVWEASCDFAKGVFNAYHFSLLLTSFNCVADPVLYCFVSETTHRDLARLRGACLAFLTCSRTGRAREAYPLGAPEASGKSGAQGEEPELLTKLHPAFQTPNSPGSGGFPTGRLA

Legend:
[1] = variants of: B1; test: cAMP reporter score (Enrich2 score, wild type = 0); higher = more signal; HEK293T, FACS bins
[2] = variants of: B1; test: surface expression score (Enrich2 score, wild type = 0); higher = more signal; HEK293T, FACS bins

R299N gave a cAMP reporter score ([1]; pH 5.5) of 1.12, a cAMP reporter score ([1]; pH 6) of 1.03 and a cAMP reporter score ([1]; pH 6, modulator: ogerin) of 1.35. The surface expression score [2] was 1.03.

R299Q showed a cAMP reporter score ([1]; pH 5.5) of 0.56, a cAMP reporter score ([1]; pH 6) of -0.079 and a cAMP reporter score ([1]; pH 6, modulator: ogerin) of 0.493. The cAMP reporter score ([1]; pH 6.5, modulator: ogerin) was 0.068 and the surface expression score [2] was 0.752.

In the case of R299F, the cAMP reporter score ([1]; pH 5.5) is reported as -0.946, the cAMP reporter score ([1]; pH 6) is reported as -1.43 and the cAMP reporter score ([1]; pH 6, modulator: ogerin) is reported as -1.08. It also gave a cAMP reporter score ([1]; pH 6.5, modulator: ogerin) of -1.33 and a surface expression score [2] of -1.75.

A303_C304insGS gave a cAMP reporter score ([1]; pH 5.5) of -0.106, a cAMP reporter score ([1]; pH 6) of -0.781 and a cAMP reporter score ([1]; pH 6, modulator: ogerin) of 0.117. The cAMP reporter score ([1]; pH 6.5, modulator: ogerin) was -0.825 and the surface expression score [2] was -0.764.

L300_R301insGSG gave a cAMP reporter score ([1]; pH 5.5) of -0.49, a cAMP reporter score ([1]; pH 6) of -0.315 and a cAMP reporter score ([1]; pH 6, modulator: ogerin) of -0.393. The cAMP reporter score ([1]; pH 6.5, modulator: ogerin) was -0.709 and the surface expression score [2] was -0.17.

Variant Y286V has a cAMP reporter score ([1]; pH 5.5) of -1.49, a cAMP reporter score ([1]; pH 6) of -1.32 and a cAMP reporter score ([1]; pH 6, modulator: ogerin) of -1.56. It also gave a cAMP reporter score ([1]; pH 6.5, modulator: ogerin) of -1.28 and a surface expression score [2] of 0.909.

With Y286D the cAMP reporter score ([1]; pH 5.5) was -1.39, the cAMP reporter score ([1]; pH 6) was -0.664 and the cAMP reporter score ([1]; pH 6, modulator: ogerin) was -1.72. It also gave a cAMP reporter score ([1]; pH 6.5, modulator: ogerin) of -0.875 and a surface expression score [2] of -2.1.

Y286G showed a cAMP reporter score ([1]; pH 5.5) of -1.15, a cAMP reporter score ([1]; pH 6) of -0.619 and a cAMP reporter score ([1]; pH 6, modulator: ogerin) of -1.34. It also gave a cAMP reporter score ([1]; pH 6.5, modulator: ogerin) of -1.38 and a surface expression score [2] of -1.03.

Variant Y286H has a cAMP reporter score ([1]; pH 5.5) of -1.01, a cAMP reporter score ([1]; pH 6) of -0.483 and a cAMP reporter score ([1]; pH 6, modulator: ogerin) of -1.24. For the same variant, the cAMP reporter score ([1]; pH 6.5, modulator: ogerin) was -0.898 and the surface expression score [2] was 0.03.

With Y286E the cAMP reporter score ([1]; pH 5.5) was -1.19, the cAMP reporter score ([1]; pH 6) was 0.011 and the cAMP reporter score ([1]; pH 6, modulator: ogerin) was -1.04. The cAMP reporter score ([1]; pH 6.5, modulator: ogerin) was -1.15 and the surface expression score [2] was -2.04.

Y286A gave a cAMP reporter score ([1]; pH 5.5) of -1.35, a cAMP reporter score ([1]; pH 6) of -0.478 and a cAMP reporter score ([1]; pH 6.5, modulator: ogerin) of -1.43. For the same variant, the surface expression score [2] was -0.018.

For Y286I, the cAMP reporter score ([1]; pH 5.5) was -0.549, the cAMP reporter score ([1]; pH 6) was -1.11 and the cAMP reporter score ([1]; pH 6.5, modulator: ogerin) was -1.41. For the same variant, the surface expression score [2] was 1.37.

For Y286S, the cAMP reporter score ([1]; pH 5.5) was -0.889, the cAMP reporter score ([1]; pH 6, modulator: ogerin) was -1.63 and the cAMP reporter score ([1]; pH 6.5, modulator: ogerin) was -0.742. The surface expression score [2] was -0.117.

Y286Q showed a cAMP reporter score ([1]; pH 5.5) of -1.64, a cAMP reporter score ([1]; pH 6) of -1.19 and a cAMP reporter score ([1]; pH 6, modulator: ogerin) of -1.38. It also gave a cAMP reporter score ([1]; pH 6.5, modulator: ogerin) of -0.828 and a surface expression score [2] of -1.64.

Work on Y286W yielded a cAMP reporter score ([1]; pH 5.5) of -0.521, a cAMP reporter score ([1]; pH 6) of -0.977 and a cAMP reporter score ([1]; pH 6, modulator: ogerin) of -0.649. It also gave a cAMP reporter score ([1]; pH 6.5, modulator: ogerin) of -0.319 and a surface expression score [2] of 1.23.

Variant Y286M has a cAMP reporter score ([1]; pH 5.5) of -0.773, a cAMP reporter score ([1]; pH 6) of -0.777 and a cAMP reporter score ([1]; pH 6, modulator: ogerin) of -0.935. For the same variant, the cAMP reporter score ([1]; pH 6.5, modulator: ogerin) was -1.74 and the surface expression score [2] was 0.462.

For Y286K, the cAMP reporter score ([1]; pH 5.5) was -1.55, the cAMP reporter score ([1]; pH 6) was -1 and the cAMP reporter score ([1]; pH 6, modulator: ogerin) was -1.52. For the same variant, the cAMP reporter score ([1]; pH 6.5, modulator: ogerin) was -1.33 and the surface expression score [2] was -1.88.

Work on Y286F yielded a cAMP reporter score ([1]; pH 5.5) of 0.462, a cAMP reporter score ([1]; pH 6) of -0.469 and a cAMP reporter score ([1]; pH 6, modulator: ogerin) of 0.529. It also gave a cAMP reporter score ([1]; pH 6.5, modulator: ogerin) of -0.676 and a surface expression score [2] of 0.507.

With Y286P the cAMP reporter score ([1]; pH 5.5) was -0.82, the cAMP reporter score ([1]; pH 6) was 0.066 and the cAMP reporter score ([1]; pH 6, modulator: ogerin) was -1.09. It also gave a cAMP reporter score ([1]; pH 6.5, modulator: ogerin) of -0.87 and a surface expression score [2] of -1.39.

Y286R gave a cAMP reporter score ([1]; pH 5.5) of -1.65, a cAMP reporter score ([1]; pH 6) of -1.04 and a cAMP reporter score ([1]; pH 6, modulator: ogerin) of -1.69. For the same variant, the cAMP reporter score ([1]; pH 6.5, modulator: ogerin) was -1.29 and the surface expression score [2] was -2.87.

Work on Y286T yielded a cAMP reporter score ([1]; pH 5.5) of -0.882, a cAMP reporter score ([1]; pH 6) of -1.48 and a cAMP reporter score ([1]; pH 6, modulator: ogerin) of -1.71. For the same variant, the cAMP reporter score ([1]; pH 6.5, modulator: ogerin) was -1.06 and the surface expression score [2] was -0.708.

For Y286L, the cAMP reporter score ([1]; pH 5.5) was -0.592, the cAMP reporter score ([1]; pH 6) was -1.92 and the cAMP reporter score ([1]; pH 6, modulator: ogerin) was -1.81. The cAMP reporter score ([1]; pH 6.5, modulator: ogerin) was -1.45 and the surface expression score [2] was -0.002.

In the case of Y286C, the cAMP reporter score ([1]; pH 5.5) is reported as -1.36, the cAMP reporter score ([1]; pH 6) is reported as -0.952 and the cAMP reporter score ([1]; pH 6, modulator: ogerin) is reported as -1.66. The cAMP reporter score ([1]; pH 6.5, modulator: ogerin) was -1.1 and the surface expression score [2] was 0.601.

In the case of Y286N, the cAMP reporter score ([1]; pH 5.5) is reported as -0.549, the cAMP reporter score ([1]; pH 6) is reported as -0.271 and the cAMP reporter score ([1]; pH 6, modulator: ogerin) is reported as -1.22. The cAMP reporter score ([1]; pH 6.5, modulator: ogerin) was -1.19 and the surface expression score [2] was -1.32.

In the case of G302_A303del, the cAMP reporter score ([1]; pH 5.5) is reported as -0.269, the cAMP reporter score ([1]; pH 6) is reported as -0.343 and the cAMP reporter score ([1]; pH 6, modulator: ogerin) is reported as -0.648. It also gave a cAMP reporter score ([1]; pH 6.5, modulator: ogerin) of -0.106 and a surface expression score [2] of -0.534.

With T292_T293insG the cAMP reporter score ([1]; pH 5.5) was -1.95, the cAMP reporter score ([1]; pH 6) was -1.12 and the cAMP reporter score ([1]; pH 6, modulator: ogerin) was -1.19. It also gave a cAMP reporter score ([1]; pH 6.5, modulator: ogerin) of -0.234 and a surface expression score [2] of 0.207.

With R301_G302insGSG the cAMP reporter score ([1]; pH 5.5) was 0.509, the cAMP reporter score ([1]; pH 6) was -0.141 and the cAMP reporter score ([1]; pH 6, modulator: ogerin) was 0.797. It also gave a cAMP reporter score ([1]; pH 6.5, modulator: ogerin) of 0.405 and a surface expression score [2] of -0.218.

Work on C287_F288del yielded a cAMP reporter score ([1]; pH 5.5) of -1.65, a cAMP reporter score ([1]; pH 6) of -1.08 and a cAMP reporter score ([1]; pH 6, modulator: ogerin) of -0.951. For the same variant, the cAMP reporter score ([1]; pH 6.5, modulator: ogerin) was -1.54 and the surface expression score [2] was -1.79.

For A303_C304insG, the cAMP reporter score ([1]; pH 5.5) was -0.528, the cAMP reporter score ([1]; pH 6) was -0.671 and the cAMP reporter score ([1]; pH 6, modulator: ogerin) was -0.768. The cAMP reporter score ([1]; pH 6.5, modulator: ogerin) was -1.67 and the surface expression score [2] was -1.23.

Work on Y286_C287del yielded a cAMP reporter score ([1]; pH 5.5) of -1.75, a cAMP reporter score ([1]; pH 6) of -1.21 and a cAMP reporter score ([1]; pH 6, modulator: ogerin) of -1.31. For the same variant, the cAMP reporter score ([1]; pH 6.5, modulator: ogerin) was -0.593 and the surface expression score [2] was -1.71.

In the case of H294_R295insG, the cAMP reporter score ([1]; pH 5.5) is reported as -1.6, the cAMP reporter score ([1]; pH 6) is reported as -1.4 and the cAMP reporter score ([1]; pH 6, modulator: ogerin) is reported as -0.461. The cAMP reporter score ([1]; pH 6.5, modulator: ogerin) was -1.06 and the surface expression score [2] was -0.134.
